From the supplement of paper PMC3334620
Whole data set: some 33,000 sequences, median “E-score (-0.5 to 0.5)” near -0.013, cut for the highest 2% near 0.3. The list shows a part of the results.

Target: T1, Msn1 (UniProt P22148)
T1 sequence: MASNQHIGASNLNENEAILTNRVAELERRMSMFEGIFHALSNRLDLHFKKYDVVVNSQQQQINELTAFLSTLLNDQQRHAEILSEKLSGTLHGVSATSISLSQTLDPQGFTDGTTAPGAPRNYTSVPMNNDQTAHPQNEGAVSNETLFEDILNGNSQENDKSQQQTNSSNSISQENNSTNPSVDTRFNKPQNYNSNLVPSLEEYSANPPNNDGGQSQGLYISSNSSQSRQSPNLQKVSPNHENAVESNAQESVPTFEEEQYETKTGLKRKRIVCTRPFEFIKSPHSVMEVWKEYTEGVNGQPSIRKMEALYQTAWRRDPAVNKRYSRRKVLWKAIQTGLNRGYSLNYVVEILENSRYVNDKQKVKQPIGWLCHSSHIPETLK
Assay: PBM E-score (8-mer binding enrichment) (E-score (-0.5 to 0.5)); higher = stronger / more preferred TF binding; most listed sequences are background and not binding sites
Conditions: protein concentration: 200 nM; construct: GST-full length
Summary of the method: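 The E-score, a modified Wilcoxon-Mann-Whitney statistic, was computed by the Universal PBM Analysis Suite for every ungapped eight-base word pooled with its reverse complement. Scans behind it were normalised with masliner after bound GST-tagged yeast transcription factors were detected with fluorescent anti-GST. The proteins, at about 100-200 nM, had been applied to universal all-10-mer Agilent arrays made double-stranded by primer extension.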

Row | Sequence | PBM E-score
1 | GCAAGAGC | -0.0224
2 | CGATGACG | -0.158
3 | GCCAGTCA | -0.117
4 | ACTCAGTC | -0.168
5 | CGGTACAG | 0.054
6 | CCGATCTC | -0.0555
7 | AGTGAATC | -0.0274
8 | CGGTTAAG | 0.0511
9 | AAGGACCT | 0.0694
10 | CGACTAAC | 0.138
11 | GAACCCCA | -0.208
12 | CCCATTCA | -0.0619
13 | ACTTGAAA | 0.185
14 | ACCGATGA | -0.0281
15 | ATACAACC | 0.103
16 | CGTTTGGC | -0.0774
17 | ATGGCCGC | -0.176
18 | AGGTTGTG | -0.0559
19 | CACGTAGA | 0.0124
20 | CCGGGTCA | -0.161
21 | CAGAAAGA | -0.00119
22 | CACATTTA | 0.15
23 | TGAAATCA | 0.0301
24 | CCTACCAG | -0.277
25 | GCATACTA | -0.0617

Row | Sequence | PBM E-score
26 | CCTAGCTA | -0.181
27 | AACAAGGA | 0.156
28 | CCTGGGCG | -0.243
29 | GGAGCTCC | -0.202
30 | ATTTATCG | 0.188
31 | CGAGTGCC | -0.099
32 | ACCGTTAA | 0.0724
33 | GAGTTTGA | 0.113
34 | ACCTGGCC | -0.0546
35 | CATATACG | 0.116
36 | ACGGAAAC | 0.0387
37 | CGTTCATA | -0.00678
38 | CAACCTGA | -0.18
39 | CACGATAA | 0.107
40 | CATGCCGC | 0.209
41 | ACATCTTC | 0.166
42 | AAGAGGCT | -0.242
43 | GGTCGGCA | -0.115
44 | GATCGCGC | -0.0341
45 | TCCCTAGA | 0.101
46 | AACCGTGG | -0.198
47 | ACCCAGTA | -0.153
48 | CCGCGCGC | 0.0959
49 | ACGAACGG | 0.118
50 | AATAGAGA | -0.00173

Row | Sequence | PBM E-score
51 | CAAGCGAG | 0.0504
52 | CATCCCCA | -0.264
53 | GCATAGAA | 0.00819
54 | CATTAATA | 0.248
55 | ACGTCTCG | 0.167
56 | GTGGAGTA | 0.0228
57 | ATGTGCAC | -0.0881
58 | AGAGTCCC | -0.189
59 | AAGCAGCT | -0.0124
60 | CTGCTGCC | -0.23
61 | GGTAGACA | 0.0726
62 | ATCTCTTA | 0.0525
63 | AGGTGAAG | -0.0722
64 | TGTCGACA | 0.113
65 | GTACATAA | 0.306
66 | ACTGCAGC | -0.228
67 | ATCGGCAA | -0.0118
68 | ACCGCCAC | -0.117
69 | AAGGAATT | 0.141
70 | GCCGCCCC | -0.239
71 | ATTTACAG | 0.0279
72 | AAGTGTCT | 0.257
73 | AAAGAGTC | -0.0782
74 | GCACCGCA | -0.212
75 | ACAGATTC | 0.169

Row | Sequence | PBM E-score
76 | CCAGCCAG | -0.312
77 | AGATATTA | 0.0256
78 | TACCTTCA | -0.0437
79 | GCGATCCA | -0.171
80 | AGACGCCA | -0.148
81 | CCGCTTAA | -0.0375
82 | ACCTGGGG | -0.332
83 | CGACGCCC | -0.093
84 | TAAGAGTA | 0.0785
85 | CCAGAGGC | -0.286
86 | CTGCATTA | -0.203
87 | CATGATCA | 0.15
88 | AGGCTATA | -0.0785
89 | GGACTGGA | 0.0295
90 | GATCAAGA | 0.112
91 | AACGCGGG | 0.104
92 | AATGAAAC | 0.153
93 | CACCGAGG | -0.142
94 | CATCAGCC | -0.177
95 | ACCTCCTG | -0.169
96 | AAACTCGG | 0.208
97 | ACCCTGGG | -0.212
98 | ACAAATTA | 0.357
99 | ATGGGTCA | 0.0193
100 | AGTGCATA | -0.146

Row | Sequence | PBM E-score
101 | ATCTCCCC | -0.331
102 | GGTTCGAC | -0.0812
103 | CAACCATC | -0.177
104 | ACTACGCA | -0.18
105 | AACGGGCC | -0.177
106 | CAGAGAGC | -0.315
107 | TGACACAA | 0.183
108 | CCATCCCA | -0.179
109 | AATGTGTC | 0.3
110 | CCCTTAGA | -0.184
111 | CGTTCTCA | -0.113
112 | AGAATTAC | 0.115
113 | CTCACACA | -0.0331
114 | GAATGTCA | 0.373
115 | CCAGACCA | -0.105
116 | GCTAGAAA | 0.165
117 | TAGCCATA | -0.0762
118 | ATGGGAGC | -0.106
119 | ACGCTAGC | -0.0853
120 | CTATGCAC | -0.278
121 | GACACACC | 0.235
122 | TGAGCCAA | -0.0952
123 | CAACTGGA | -0.128
124 | AAGAATTG | 0.102
125 | GATGCGCC | 0.0596

Row | Sequence | PBM E-score
126 | CGGAAAAG | 0.184
127 | AAGAGAGT | -0.107
128 | AACCAGCA | -0.14
129 | CCACAACC | -0.0582
130 | CTAGAGCC | -0.127
131 | ATTTTTGC | 0.208
132 | GCGTGAGA | -0.00665
133 | AACCTTTC | -0.185
134 | ATTGTCGG | 0.318
135 | CATCCTGC | -0.0899
136 | GCGATTAC | -0.132
137 | CCACTCAC | -0.191
138 | GACCGCGA | 0.027
139 | CACTCTCC | -0.0252
140 | CCTTAATA | 0.0882
141 | ACTGGTGA | -0.171
142 | CCCCCCCA | -0.238
143 | GATGCATA | -0.0415
144 | GGTACAGA | 0.133
145 | CAAGATAG | -0.221
146 | ATGAGGAA | 0.0144
147 | AAGCGCGG | 0.00342
148 | CCAAGCGA | -0.119
149 | GCAAGCCC | -0.176
150 | ATAGCAAA | 0.113

Row | Sequence | PBM E-score
151 | CATGCGGC | -0.0514
152 | GTATGAGA | 0.095
153 | CATGGTCC | -0.0489
154 | ATACTGCG | -0.167
155 | AGTCACAA | 0.114
156 | CCCGACAC | -0.0956
157 | ATCCCATA | -0.0979
158 | CAAGTTGG | 0.139
159 | CAGGTACC | -0.0898
160 | GAAGCGTC | -0.0802
161 | CCTCCTCG | -0.346
162 | GAACGGGC | -0.175
163 | AGTCTGCG | -0.127
164 | CACGCAGA | 0.0532
165 | ACTACAAC | 0.0974
166 | TATGGGAA | -0.0228
167 | AAAAACGA | 0.126
168 | TCTCCGCA | 0.0234
169 | GTTGGGGA | -0.0295
170 | AGTGGGTA | 0.0163
171 | AGCATCCC | -0.175
172 | CACATGGG | -0.22
173 | AGACCGAT | 0.0374
174 | CCTCCCGC | -0.0713
175 | ACAGGACC | 0.0142

Row | Sequence | PBM E-score
176 | GCTGACCA | -0.106
177 | GCGAGACC | -0.0729
178 | ACTTGTTC | 0.131
179 | AATGAATT | 0.115
180 | GAAGAACC | -0.169
181 | AGCACGAG | -0.127
182 | GGTATCAA | 0.0141
183 | AGGGATCC | -0.287
184 | ATGTCGCG | 0.387
185 | CGAGAACG | 0.0519
186 | CAGGGCCA | -0.369
187 | CTGATTTC | -0.104
188 | AACGCTAT | -0.0461
189 | ACGATCCT | -0.0372
190 | CTCAGCCA | -0.12
191 | CACACCCG | 0.0155
192 | GCCAAAAC | -0.0976
193 | TAATAAAA | 0.282
194 | CGAATGCG | 0.136
195 | AAGAGGGC | -0.216
196 | ACTGTCCC | 0.127
197 | TAGTCGCA | -0.032
198 | CAAATTAG | 0.163
199 | AAATGTTA | 0.165
200 | AAGGATGG | -0.0333

Row | Sequence | PBM E-score
201 | GGGCTGCA | -0.0742
202 | ATCGACCC | -0.11
203 | GGCTGTAC | -0.0827
204 | GGTAATGA | 0.116
205 | AGGTCAAC | -0.0773
206 | ATCGTCGA | -0.166
207 | GCTAGAAC | -0.0835
208 | CCTGGCCA | -0.107
209 | CGTCCGCC | -0.165
210 | GATGCGGA | 0.107
211 | GTCTCTCA | 0.14
212 | ATAATACC | 0.136
213 | CCTGGAAC | -0.0583
214 | CCAGATCA | 0.109
215 | GGGTGCAC | -0.237
216 | CCGGCGGA | 0.0417
217 | CATCAGAG | -0.175
218 | GCTTGAAC | 0.187
219 | CCGGACCG | 0.0321
